# The other results are listed elsewhere or left out. These are noisy estimates, calculated here from bound and input reads.
# Target: T1, Pho4 (S. cerevisiae) (UniProt P07270)
# T1 sequence: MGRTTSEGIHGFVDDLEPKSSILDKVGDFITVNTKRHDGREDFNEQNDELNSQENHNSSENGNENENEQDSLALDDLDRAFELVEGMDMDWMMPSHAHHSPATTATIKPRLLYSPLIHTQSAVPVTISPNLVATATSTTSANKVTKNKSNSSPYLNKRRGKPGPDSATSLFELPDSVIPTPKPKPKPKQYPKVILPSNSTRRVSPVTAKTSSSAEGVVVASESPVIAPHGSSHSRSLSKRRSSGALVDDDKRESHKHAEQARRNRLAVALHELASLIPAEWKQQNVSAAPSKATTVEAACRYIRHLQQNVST
# Test: relative binding free energy (BET-seq); higher = weaker binding
# Conditions: reference: library average
row,Sequence,relative binding free energy [kcal/mol]
1,GGGAGCACGTGTTGAT,-0.27
2,GTCTTCACGTGAGTGG,0.55
3,AGGAGCACGTGTCTGG,-0.18
4,TTTGACACGTGTTATA,0.06
5,GAGGTCACGTGTAGAT,0.23
6,TGTTTCACGTGGCAGT,0.37
7,AGTTTCACGTGACGAG,0.41
8,CTTAGCACGTGGTGAA,-0.19
9,TGTGCCACGTGTAGTG,-0.18
10,CTAATCACGTGGGTTG,-0.02
11,TGATACACGTGGAGGT,0.2
12,GATTACACGTGTAGTT,0.31
13,AAGTGCACGTGGCGTA,-0.1
14,TAGGACACGTGTGGTC,0.09
15,AGTGGCACGTGTAGTC,-0.04
16,TTAAGCACGTGTCTAG,-0.06
17,ACAGGCACGTGGGTAG,-0.36
18,GTGTACACGTGTGGAG,0.06
19,ACGGGCACGTGTGGAT,0.05
20,GTTCGCACGTGTAGTA,0.1
21,ATTATCACGTGTTATG,0.07
22,ATGTTCACGTGGTCAT,0.03
23,TAATGCACGTGATGCG,-0.06
24,GAATGCACGTGGTGAG,-0.04
25,TGGGGCACGTGACGCT,-0.07
26,TTAGGCACGTGAACGG,-0.06

row,Sequence,relative binding free energy [kcal/mol]
1,CTGTGCACGTGTTGTG,-0.05
2,TTTGACACGTGATTAG,0.15
3,GGGTTCACGTGGCACG,0.37
4,GAGAACACGTGTGTAT,0.23
5,CATTGCACGTGATGGT,0.16
6,AGTTGCACGTGAAATG,0.35
7,TAATTCACGTGGTATA,0.13
8,CGGTTCACGTGGGAGA,0.28
9,GTGCTCACGTGTGAAG,0.29
10,GGGGTCACGTGGTTAC,0.22
11,AGACGCACGTGGTGGG,-0.18
12,TGAGTCACGTGTGTTC,0.07
13,GGGATCACGTGATGAT,0.2
14,ATGGGCACGTGGCTCA,-0.15
15,TTATTCACGTGATTCT,0.19
16,CGCGGCACGTGGCGTG,-0.23
17,GAGGTCACGTGCGTTA,0.03
18,ATAGGCACGTGGTGGG,-0.18
19,GTCATCACGTGAAGTT,0.4
20,ACGTACACGTGTTGTT,0.1
21,TTAAGCACGTGTGATT,-0.04
22,TCGTTCACGTGCTGGG,0.3
23,ATAGTCACGTGATGGA,0.16
24,GGGAGCACGTGAGTGC,0.08
25,TCGAGCACGTGATGGG,0.08
26,TTGTACACGTGTGGAT,0.02

row,Sequence,relative binding free energy [kcal/mol]
1,TATGACACGTGGGGTA,-0.13
2,TGAAACACGTGGGGCT,0.01
3,GTGTACACGTGGGCGA,-0.11
4,TATGTCACGTGGCATT,-0.13
5,GGTCTCACGTGGTGTC,0.3
6,CATTACACGTGGTTTA,0.06
7,AGTTTCACGTGCTGTT,0.24
8,TTGTACACGTGTGACA,0.17
9,CGGGGCACGTGGTAGT,-0.13
10,AATAACACGTGTTTTA,0.1
11,GACTTCACGTGGTTTG,0.25
12,GGCATCACGTGGAGGA,0.24
13,TGGTTCACGTGCGGGC,0.22
14,TAGATCACGTGGTATA,-0.07
15,ATGGGCACGTGCGATG,-0.09
16,GTTTCCACGTGATATG,0.15
17,GTTGTCACGTGCGTGC,0.02
18,TGGAGCACGTGTTACT,-0.12
19,GCGGACACGTGTAGTG,0.11
20,GAGTTCACGTGTAGGA,0.21
21,GTGAGCACGTGTCGAG,-0.01
22,TTCGGCACGTGTTAAG,-0.04
23,GAGTTCACGTGCGGTG,0.36
24,AGCTGCACGTGGGGTA,-0.21
25,AGAGGCACGTGTGTTA,-0.16
26,GTAGGCACGTGATGTC,0.05

row,Sequence,relative binding free energy [kcal/mol]
1,TAAGACACGTGTAGGA,0.1
2,TTACACACGTGGTGTT,-0.09
3,CAGGCCACGTGGTGGT,-0.15
4,GTTGTCACGTGATGCG,0.28
5,ATGAGCACGTGGGGGG,-0.27
6,GGAAACACGTGGGGTA,-0.2
7,CATGGCACGTGGGCGG,-0.22
8,GTAAGCACGTGGACGG,0.04
9,GTCGGCACGTGGGGGA,-0.26
10,ATCCACACGTGGTGGG,0.1
11,TTGTGCACGTGATTGA,0.08
12,TGATGCACGTGACGGG,0.04
13,TTTGTCACGTGATGCT,0.19
14,GGAAACACGTGGGATG,-0.18
15,GTCTGCACGTGTAGAT,0.39
16,GGATTCACGTGATGCT,0.31
17,TAGTTCACGTGTTTAG,0.42
18,TGGTCCACGTGGTGGA,-0.01
19,AGGGTCACGTGGTAGA,0.1
20,GATGGCACGTGGTGGA,-0.15
21,CGGGGCACGTGAACTG,0.22
22,ACTTACACGTGATGTG,0.2
23,CAAGACACGTGGAGTG,0.13
24,TAGGTCACGTGAAAGA,0.35
25,CGAGTCACGTGGTATT,-0.01
26,GAAGCCACGTGTGGTT,0.22

row,Sequence,relative binding free energy [kcal/mol]
1,CCTGGCACGTGGGGAA,-0.15
2,GTGTACACGTGGATAA,0.12
3,TATGTCACGTGAATTA,0.28
4,GCTAGCACGTGTAGGT,0.03
5,GCGCTCACGTGGGAGG,0.12
6,TGGTACACGTGATATA,0.2
7,GATGACACGTGTGTAG,0.1
8,TTGAGCACGTGCTGTT,-0.18
9,TGTGCCACGTGCGGCT,-0.13
10,TGATGCACGTGGCAGT,-0.09
11,CATAGCACGTGTTGGC,0.04
12,GGTATCACGTGATTTT,0.26
13,ATTATCACGTGTTGGG,0.14
14,CGAGTCACGTGGGAGG,-0.05
15,GAGGTCACGTGCGGTT,0.26
16,GATTGCACGTGACGGG,0.25
17,AATAGCACGTGGCGGG,-0.19
18,GACTTCACGTGTTTTT,0.35
19,AAAGTCACGTGAGGTA,0.18
20,TAGGGCACGTGAGCAT,0.01
21,GGTGGCACGTGTGTAC,-0.15
22,TAGGTCACGTGCGTGA,0.05
23,GTTATCACGTGTAGGA,0.21
24,GACATCACGTGTGGGT,0.1
25,AGTGTCACGTGCGTAA,-0.19
26,TAAGTCACGTGGCTAT,-0.05

row,Sequence,relative binding free energy [kcal/mol]
1,ATGGTCACGTGCAGGG,0.06
2,GAGTCCACGTGTAGGT,0.04
3,TATTGCACGTGTAGAG,0.05
4,TTCGGCACGTGGTTAT,-0.19
5,TGGTGCACGTGAGCTT,0.15
6,GTTGTCACGTGTATGC,0.26
7,GTGGTCACGTGGGCCA,-0.09
8,ATCTACACGTGTGTGG,0.09
9,TGTAACACGTGTTTAT,0.07
10,GTGGACACGTGTTGGA,0.01
11,TTGTTCACGTGATTGA,0.31
12,GGGTGCACGTGTGCCT,0.01
13,GTGGTCACGTGCGGTA,0.17
14,CGGTGCACGTGAGCTG,0.16
15,TATATCACGTGCTTGA,0.07
16,AAGTTCACGTGTGGTT,0.4
17,TTAATCACGTGGTATA,0.03
18,TGCGCCACGTGGGCGG,-0.26
19,GTGTTCACGTGTTAAG,0.22
20,GGGGGCACGTGCTTTA,-0.06
21,TTAAACACGTGCTGTG,0.02
22,ACATGCACGTGTGTTA,-0.02
23,TGTAGCACGTGGATGC,-0.15
24,AGTTTCACGTGATGCA,0.35
25,CATTGCACGTGGGATG,-0.15
26,AGATACACGTGGTTTT,0.09

row,Sequence,relative binding free energy [kcal/mol]
1,GTATTCACGTGAGAAT,0.5
2,TTATTCACGTGGATAG,0.25
3,TGTCGCACGTGTATAT,0.08
4,CAGAGCACGTGAAGTT,0.31
5,TTCAGCACGTGTGAGT,-0.11
6,AGGTACACGTGAGGTA,0.23
7,GGGAGCACGTGAGGAG,0.23
8,GGCGGCACGTGGGCGT,-0.13
9,ATACTCACGTGTTGTT,0.29
10,GTTTACACGTGAGTGT,0.44
11,GCGGGCACGTGCGTTA,-0.07
12,TAGATCACGTGGTGCA,0.03
13,GGGGTCACGTGACGTT,0.24
14,TGCCTCACGTGTGGGG,0.01
15,GTCCTCACGTGTTTGG,0.37
16,GTAAGCACGTGGGACT,-0.12
17,AGGGGCACGTGCCAGT,-0.19
18,ATAGTCACGTGTTTTA,0.08
19,CTGGGCACGTGGAGAG,-0.01
20,TATTTCACGTGCGGGT,0.4
21,AGTGGCACGTGAGCAG,0.01
22,GGGCCCACGTGCGGGT,-0.02
23,AAGACCACGTGGTGGG,-0.16
24,AGATACACGTGTGTAT,-0.02
25,TTATGCACGTGACAGG,-0.05
26,ATGCGCACGTGGGGGG,-0.23

row,Sequence,relative binding free energy [kcal/mol]
1,GGAATCACGTGAGAGT,0.37
2,AGATGCACGTGTATGG,0.02
3,CGTTGCACGTGGAGGA,0.02
4,TGTAACACGTGGGCGA,-0.21
5,ATTGTCACGTGTGACT,0.13
6,CGTTGCACGTGGAGAG,0.12
7,TAGGTCACGTGGAGAT,0.16
8,AGGCTCACGTGGGGTA,0.03
9,TTTGTCACGTGATCAT,0.06
10,AGTGTCACGTGACTTT,0.04
11,TTCTGCACGTGGGGGG,-0.2
12,GGCACCACGTGGTGTT,-0.04
13,AGTGTCACGTGTAGTT,0.11
14,ATGGTCACGTGCTGTA,-0.02
15,TTATGCACGTGGAGGA,-0.13
16,GAAGGCACGTGATGAA,0.15
17,GTCGTCACGTGCGGGT,0.06
18,GGGAGCACGTGAGTGT,0.24
19,GGCAGCACGTGGCGGG,-0.16
20,TGATGCACGTGGATAA,-0.06
21,TAGCTCACGTGGCGGG,0.1
22,GAGGCCACGTGGGATT,-0.01
23,CATGACACGTGTGGGG,0.06
24,GTTTGCACGTGGGTGA,-0.07
25,GGGGTCACGTGCAATA,0.12
26,GGGGCCACGTGTTGCT,-0.04

row,Sequence,relative binding free energy [kcal/mol]
1,TAAGACACGTGGGAAT,0.18
2,CTGCGCACGTGATGGT,0
3,TAAGGCACGTGGGGAA,-0.08
4,TTGTTCACGTGAATAT,0.34
5,ATCTTCACGTGTTATG,0.24
6,TGTGTCACGTGGTAAG,0.15
7,TGGAGCACGTGTGCGT,-0.11
8,GACGACACGTGGGGTT,-0.14
9,TAGGGCACGTGAAGCA,0.12
10,AAGGACACGTGGTTAA,0.04
11,GTGTACACGTGATACG,0.09
12,GGGGCCACGTGGGATT,-0.13
13,ACTAGCACGTGTTTTG,-0.14
14,CATTGCACGTGTGGTC,0.11
15,GGATGCACGTGTGTGA,0.11
16,TGCTGCACGTGAAGTG,0.14
17,GGGCTCACGTGGTGCG,0.28
18,TGCGTCACGTGATAAG,0.19
19,GTTTTCACGTGTGCCT,0.37
20,GGGGGCACGTGCGTAT,-0.09
21,GGGGCCACGTGCTTGG,-0.23
22,ATTTGCACGTGAGTGC,0.22

# Source: the BET-seq Pho4 binding data (Le et al. 2018)
